Test results from paper PMC4336329 (PLoS ONE, 2015).
Hit rate of the full screen: of about 310,000 compounds, about 2,200 (0.71%) showed an effect of 50% or more. The effect is printed as a negative number. The list shows a part of the results.

biological target: human ether-à-go-go-related gene (hERG) potassium channel (human, UniProt Q12809); test: primary screen, population patch clamp on CHO cells stably expressing hERG
Sequence (Q12809 whole entry, looked up): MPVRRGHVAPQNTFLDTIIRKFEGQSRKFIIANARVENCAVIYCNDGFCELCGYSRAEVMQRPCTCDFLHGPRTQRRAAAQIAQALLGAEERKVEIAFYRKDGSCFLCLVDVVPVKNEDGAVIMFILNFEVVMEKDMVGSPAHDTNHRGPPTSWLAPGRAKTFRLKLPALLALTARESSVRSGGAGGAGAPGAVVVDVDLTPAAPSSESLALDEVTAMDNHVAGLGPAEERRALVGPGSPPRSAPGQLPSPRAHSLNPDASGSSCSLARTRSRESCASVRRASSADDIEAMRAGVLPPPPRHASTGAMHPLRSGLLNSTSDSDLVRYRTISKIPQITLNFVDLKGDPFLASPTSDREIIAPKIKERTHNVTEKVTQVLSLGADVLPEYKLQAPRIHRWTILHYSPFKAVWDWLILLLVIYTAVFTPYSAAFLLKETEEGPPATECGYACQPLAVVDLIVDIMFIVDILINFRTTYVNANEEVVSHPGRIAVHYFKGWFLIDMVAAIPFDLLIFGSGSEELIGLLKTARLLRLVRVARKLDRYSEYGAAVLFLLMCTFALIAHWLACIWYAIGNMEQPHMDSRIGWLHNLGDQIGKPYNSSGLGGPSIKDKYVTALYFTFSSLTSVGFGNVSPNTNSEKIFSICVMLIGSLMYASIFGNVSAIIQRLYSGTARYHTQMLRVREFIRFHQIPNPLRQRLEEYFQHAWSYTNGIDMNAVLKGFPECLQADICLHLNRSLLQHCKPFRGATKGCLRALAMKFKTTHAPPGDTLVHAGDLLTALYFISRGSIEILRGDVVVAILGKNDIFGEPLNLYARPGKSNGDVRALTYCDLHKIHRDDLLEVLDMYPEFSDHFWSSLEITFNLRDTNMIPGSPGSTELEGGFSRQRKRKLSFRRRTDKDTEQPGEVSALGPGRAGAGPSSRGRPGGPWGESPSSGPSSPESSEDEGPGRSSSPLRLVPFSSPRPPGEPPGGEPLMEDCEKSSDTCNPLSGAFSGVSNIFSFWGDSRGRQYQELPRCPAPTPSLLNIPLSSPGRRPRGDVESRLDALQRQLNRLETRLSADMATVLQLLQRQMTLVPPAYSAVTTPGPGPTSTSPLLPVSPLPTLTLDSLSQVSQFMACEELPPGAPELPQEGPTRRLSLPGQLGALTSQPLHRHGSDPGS

| SMILES | hERG current change (%, negative = inhibition) at 1uM |
| --- | --- |
| CN(Cc1ccccc1)C(=O)CN1C(=O)c2ccc([N+](=O)[O-])cc2C1=O | 2.31% |
| O=C(N/N=C/c1c[nH]c2ccccc12)c1ccn(Cc2ccc(Cl)cc2)n1 | 13% |
| Nc1c(N(CCO)C(=O)/C=C/c2ccco2)c(=O)[nH]c(=O)n1Cc1ccccc1 | 12.4% |
| Cc1cccc(C)c1Nc1nnc(SCc2cc([N+](=O)[O-])cc3c2OCOC3)s1 | 5.81% |
| Cn1c(=O)c(C(=O)Nc2ncccc2O)c(O)c2ccccc21 | 5.05% |
| COc1ccc(C(=O)NCCCN2CCCC2=O)cc1 | 9.52% |
| Cc1scc(C(=O)N/N=C/c2ccc([N+](=O)[O-])o2)c1C | 7.51% |
| Cc1ccccc1NC(=O)N1CCCC1C(=O)NCc1cccs1 (stereo not shown) | -3.89% |
| CC(=O)Nc1ccc(N2C(C(C)=O)=NN(c3ccccc3)C2c2cccs2)cc1 (stereo not shown) | 15.6% |
| COc1ccc(NC(=O)N2CCC3(CC2)OCCO3)cc1OC | 12.3% |
| Cc1csc(NC(=O)c2ccc(S(=O)(=O)N3CCCC3)cc2)n1 | 5.64% |
| COc1ccc(-n2c(SCC(=O)O)nc3sc4c(c3c2=O)CCC4)cc1 | 17.6% |
| CCNS(=O)(=O)c1ccc(NC(=O)Nc2cccc(OC)c2)cc1 | 13.1% |
| CC1=CC(C)(C)Nc2ccc(OC(=O)CCN3C(=O)c4ccccc4C3=O)cc21 | 5.52% |
| COc1cc(C(=O)OC(C)CN2CCN(C)CC2)cc(OC)c1OC.Cl (stereo not shown) | 3.84% |
| Cc1ccc(F)c(CNC(=O)C2CCC(=O)N(CCCN3CCCC3=O)C2)c1F (stereo not shown) | 12.8% |
| C=CCn1c(CCNC(=O)c2cccs2)nnc1SCC(=O)c1ccc(Cl)cc1 | -10% |
| COc1ccc(CN(C(=O)CNC(=O)c2ccco2)C(C(=O)NCC2CCCO2)c2ccccc2)cc1 (stereo not shown) | 3.25% |
| CCOC(=O)c1sc(NC(=O)C2CC(=O)N(c3ccccc3C)C2)nc1C (stereo not shown) | 8.08% |
| N#CCC(=O)Nc1ccc(C(F)(F)F)cc1N1CCOCC1 | 4.03% |
| N=c1c2c3c(sc2ncn1Cc1ccco1)CCCCC3 | 2.19% |
| COc1cccc(CN2CCN(C(=O)C3CCC(=O)N(C4CCCC4)C3)CC2)c1 (stereo not shown) | 5.03% |

| SMILES | hERG current change (%, negative = inhibition) at 1uM |
| --- | --- |
| CC(C)(C)OC(=O)NCC1CCN(S(=O)(=O)Cc2ccccc2)CC1 | 16.1% |
| Cc1ccc(S(=O)(=O)NCCCCCC(=O)Nc2c(C)n(C)n(-c3ccccc3)c2=O)cc1 | 27.4% |
| Cc1snc(S(=O)(=O)/C(C#N)=N\Nc2ccccc2)c1C#N | 11% |
| CCOc1ccc(CN(C)CC(=O)NCc2ccc(F)cc2)cc1 | -78.6% |
| CCc1ccccc1N1C(=O)[C@@H]2Cc3ccccc3CN2C1=O | 6.47% |
| Cc1cc2nc(N)sc2cc1[N+](=O)[O-] | 3.97% |
| O=C1CC2(CCCC2)Oc2ccccc21 | 9.1% |
| CCOC(=O)c1[nH]c2ccccc2c1NC(=O)c1ccc(S(=O)(=O)N2CCCCC2)cc1 | 8.49% |
| COc1cccc(-c2nc(C(=O)NCC3CCCO3)cc3c2[nH]c2ccccc23)c1 (stereo not shown) | -18.9% |
| Cc1ccc(S(=O)(=O)NC(C)(C)CSc2ccccn2)cc1 | 2.69% |
| COc1ccc(CNC(=O)Cn2ccc3cc(S(=O)(=O)N4CCCC4)ccc32)cc1OC | 8.33% |
| Cc1ccc(C2C(C#N)=C(N)OC3=C2C(=O)CC(C)(C)C3)s1 (stereo not shown) | 10.8% |
| O=C(Nc1ccc(F)cc1)c1cccc(N2C(=O)c3ccccc3C2=O)c1 | 7.95% |
| COc1ccc(-c2cc(C(=O)NC3CCCCC3)no2)cc1OC | 14.4% |
| Cc1ccc(N2CC(C(=O)OCC(=O)Nc3ccccc3F)CC2=O)cc1 (stereo not shown) | 15.6% |
| COc1ccc(CN2CCNC(=O)C2CC(=O)O)cc1OC (stereo not shown) | 17.6% |
| Cc1ccc(-n2nc3cc(Cl)c(NC(=O)c4ccco4)cc3n2)cc1 | 9.71% |
| Fc1ccc(C2CC(c3ccc(F)cc3)n3ncnc3N2)cc1 (stereo not shown) | -9.77% |
| CCn1nc(C(=O)N2CCN(Cc3nc4ccccc4s3)CC2)c2ccccc2c1=O | -38.6% |
| CC1CN(S(=O)(=O)c2ccc(C(=O)N3c4ccccc4CC3C)cc2)CC(C)O1 (stereo not shown) | 7.9% |
| Cc1cccc(NC(=O)c2nc[nH]c2C(=O)N[C@@H](C)c2ccccc2)c1 | 13.3% |
| COc1ccc(C(=O)C2CCCN(Cc3cnc(C)s3)C2)cc1OC (stereo not shown) | 2.68% |

| SMILES | hERG current change (%, negative = inhibition) at 1uM |
| --- | --- |
| CC(=O)c1cccc(NC(=S)Nc2cccc3ccccc23)c1 | 10.6% |
| CCN1C(=O)C(CC(=O)Nc2ccc(F)cc2)N(Cc2cccs2)C1=S (stereo not shown) | -10.5% |
| COC(=O)c1cc(Sc2c(Cl)cccc2Cl)ccn1 | 3.11% |
| CCOc1ccccc1C(=O)n1nc2nc(C)cc(C)c2c1N | 8.47% |
| c1ccc(-c2nc3cnccn3c2Nc2ccc3c(c2)OCCO3)cc1 | 8.75% |
| Cc1ccc(C)c(SCC(=O)N(C)CC(=O)Nc2ccc(N3CCOCC3)cc2)c1 | 6.79% |
| CCS(=O)(=O)n1nc(-c2ccc(Cl)cc2)nc1SC | 16.3% |
| Nc1ccccc1C(=O)NNC(=O)C(=O)/C=C(\O)c1ccccc1 | 6.8% |
| O=P1(c2ccccc2)C=Cn2c1cc1c2CCCC1 (stereo not shown) | -10.9% |
| CC(=O)Nc1ccc(S(=O)(=O)NCCNc2ccccc2[N+](=O)[O-])cc1 | 6.95% |
| Cc1ccc(-c2nc(C#N)c(NCCCn3ccnc3)o2)cc1 | -8.18% |
| CCCCCC1CC(CC(C)C(=O)Nc2nncs2)C(=O)O1 (stereo not shown) | -8.77% |
| Cc1occc1C(=O)N1CCCC(N2CCN(c3cccc(C(F)(F)F)c3)CC2)C1 (stereo not shown) | -0.369% |
| CC(/C=C/c1ccccc1F)=N\NC(=O)C(C)C | 2.29% |
| C[C@H]1CC[C@H]2C(=O)N3[C@H](c4cccc(N5CCCC5=O)c4)[C@@H](C)CC[C@H]3C(=O)N2[C@@H]1c1cccc(N2CCCC2=O)c1 | -25.1% |
| CC1CCCC(C)N1C(=O)COC(=O)CCc1nc2ccccc2c(=O)[nH]1 (stereo not shown) | 8.05% |
| Cc1cc2c(c(=O)n1Cc1ccco1)C(c1ccccc1)C(C#N)=C(N)O2 (stereo not shown) | 13.2% |
| O=C1CSC(c2ccccc2)N1Cc1ccccc1 (stereo not shown) | 17.2% |
| Cc1cc(CNC(=O)CCc2nnc(CCCCc3ccccc3)o2)nn1C | 22.1% |
| COc1ccc(C(=O)Nc2cc(C)c(NC(=O)c3ccccn3)cn2)cc1 | 9.17% |
| O=C(CCSCc1ccc(Cl)cc1)NCCc1ccccc1 | 8.28% |
| COc1ccc(S(=O)(=O)N(C)CC(=O)NCc2ccco2)cc1Cl | 9.51% |

| SMILES | hERG current change (%, negative = inhibition) at 1uM |
| --- | --- |
| Cc1cccc(NC(=O)Nc2cnccn2)c1C | 11.2% |
| N#Cc1cc(-c2cccc(Cl)c2)c[nH]c1=O | 12.3% |
| COCCN(C(=O)CCC(=O)Nc1nccs1)C(C(=O)NC(C)(C)C)c1ccc(C)cc1 (stereo not shown) | 5.75% |
| O=c1ccc(Oc2nc(N3CCOCC3)nc(N3CCOCC3)n2)nn1-c1ccccc1 | -4.49% |
| CCN(C(=O)COC(=O)c1n[nH]c2ccccc12)c1ccccc1 | 10.8% |
| Cc1ccc(C(=O)CSc2nnc(CNc3ccc(C)cc3C)o2)cc1 | -8.37% |
| O=C(O)c1ccccc1Nc1ccc(OC(F)F)cc1 | 7.88% |
| S=c1[nH]nc(COc2ccccc2)n1/N=C/c1ccc(Br)cc1 | 13.4% |
| CSc1ccc(-c2sc(Nc3ccccc3)n[n+]2-c2ccccc2)cc1.[Cl-] | -2.96% |
| COc1cccc(C(C)NC(=O)C2CCCC2)c1 (stereo not shown) | 11.2% |
| Cc1cc(C)nc(/N=C(\N)Nc2ccc(-c3ccccc3)cc2)n1 | -59.8% |
| Cc1ccc(/C=C/C(=O)OCn2nnc3ccccc3c2=O)o1 | 8.63% |
| Cc1ccc(S(=O)(=O)N/N=C\c2cccnc2)cc1 | 8.86% |
| Cc1ccccc1NC1=C(Cl)C(=O)OC1OC(=O)c1ccco1 (stereo not shown) | 11% |
| O=C(COc1ccccc1)NNC(=S)NC(=O)c1ccc(Cl)cc1Cl | 10.6% |
| Cc1[nH]c(=O)[nH]c(=O)c1S(=O)(=O)N1CCCCC1 | 16.8% |
| COc1cc2nc(C3CCC3)n(NC(=O)COc3ccccc3)c(=O)c2cc1OC | 15.4% |
| COc1ccc(OC)c(/C=C/C(=O)Nc2ccc3c(c2)CCC3)c1 | 11.4% |
| O=C(COC(=O)c1ncc(Cl)c(Cl)c1Cl)NC(=O)c1ccccc1 | 15.5% |
| COc1ccccc1CNC(=S)NC1CCCCC1 | 5.92% |
| Cc1[nH]c2ccccc2c1C(=O)COC(=O)c1ccc2c(=O)n3c(nc2c1)CCC3 | 20.9% |
| O=C(c1ccc(F)cc1)[C@@H]1[C@@H](C(=O)c2ccccc2)[C@@]2(C(=O)Nc3ccccc32)[C@H]2c3ccccc3C=CN12 | 16.5% |
